According to the BET-seq Pho4 binding data (Le et al. 2018):
This is one part of the list. Values were computed here from the reads of four pooled replicates and scatter widely.

Biological target: T1, Pho4 (S. cerevisiae) (UniProt P07270)
T1 sequence: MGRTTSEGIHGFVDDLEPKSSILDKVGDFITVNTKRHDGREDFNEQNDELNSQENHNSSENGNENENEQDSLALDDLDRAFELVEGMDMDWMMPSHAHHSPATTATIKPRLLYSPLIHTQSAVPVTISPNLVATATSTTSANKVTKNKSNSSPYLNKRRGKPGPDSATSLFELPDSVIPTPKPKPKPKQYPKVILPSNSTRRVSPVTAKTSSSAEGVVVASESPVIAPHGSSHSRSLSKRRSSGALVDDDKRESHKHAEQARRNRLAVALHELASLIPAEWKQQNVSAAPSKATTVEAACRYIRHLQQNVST
Experiment: relative binding free energy (BET-seq); higher = weaker binding
Conditions: reference: library average

| Sequence | relative binding free energy |
| --- | --- |
| GGTATCACGTGTGTCA | 0.16 kcal/mol |
| TGACTCACGTGGATGG | 0.21 kcal/mol |
| TTCTTCACGTGGGGGA | 0.18 kcal/mol |
| GCAGTCACGTGAGGGT | 0.37 kcal/mol |
| GGACTCACGTGTGGGC | 0.22 kcal/mol |
| AACATCACGTGTGGGG | 0.26 kcal/mol |
| CAGATCACGTGGGTGA | 0.06 kcal/mol |
| GTGTCCACGTGAAGGT | 0.12 kcal/mol |
| AAGGGCACGTGGTGGA | -0.15 kcal/mol |
| TATGGCACGTGAGTGT | 0.16 kcal/mol |
| TGCTTCACGTGTGCAT | 0.29 kcal/mol |
| CTGTGCACGTGACTGG | 0.08 kcal/mol |
| TGCTACACGTGTGATG | 0.22 kcal/mol |
| TTAAACACGTGAGGAT | 0.12 kcal/mol |
| GGGAGCACGTGGGTGC | -0.16 kcal/mol |
| GGTAACACGTGTTTTT | 0.14 kcal/mol |
| ACTTTCACGTGTTGTC | 0.26 kcal/mol |
| TTGTACACGTGTGGGT | 0.21 kcal/mol |
| CGAAGCACGTGTGTTG | -0.06 kcal/mol |
| GTGGGCACGTGGGTCT | -0.12 kcal/mol |
| AAAGTCACGTGGTGCA | 0.08 kcal/mol |
| GATTCCACGTGGTGTA | 0.1 kcal/mol |
| GTGAACACGTGTTGAA | 0.18 kcal/mol |

| Sequence | relative binding free energy |
| --- | --- |
| TTGGGCACGTGGTTCC | -0.11 kcal/mol |
| TGTTACACGTGGGGGA | -0.04 kcal/mol |
| TATGACACGTGGTAAT | 0.02 kcal/mol |
| ACTGTCACGTGGGTCG | 0.02 kcal/mol |
| TATTTCACGTGTGGGT | 0.33 kcal/mol |
| GGTGGCACGTGGACTA | -0.02 kcal/mol |
| AATCGCACGTGTAAGT | 0.12 kcal/mol |
| TTTAACACGTGATGGC | 0.19 kcal/mol |
| GTGGCCACGTGGTGTT | -0.16 kcal/mol |
| TCGGTCACGTGTGGAA | 0.12 kcal/mol |
| TGGCTCACGTGAGATG | 0.34 kcal/mol |
| TTGGACACGTGTGGAT | 0.12 kcal/mol |
| GCTGGCACGTGATTTG | 0.15 kcal/mol |
| CGTGGCACGTGAAAGG | 0.14 kcal/mol |
| TGTAACACGTGTGGAA | -0.06 kcal/mol |
| ATACGCACGTGAGTGG | 0.05 kcal/mol |
| TGGTGCACGTGGTTCA | -0.04 kcal/mol |
| AGGTGCACGTGTGGAG | 0 kcal/mol |
| ATCTTCACGTGAGGTA | 0.35 kcal/mol |
| TGTAACACGTGAGTGT | 0.09 kcal/mol |
| GAGTTCACGTGTTATG | 0.43 kcal/mol |
| GCGTGCACGTGTGCGG | 0.1 kcal/mol |
| GAAAGCACGTGGGGGA | -0.09 kcal/mol |

| Sequence | relative binding free energy |
| --- | --- |
| AATGGCACGTGCTGGA | -0.26 kcal/mol |
| TGAGTCACGTGTATCT | 0.12 kcal/mol |
| AGGTGCACGTGTTGCT | -0.13 kcal/mol |
| TGGCCCACGTGGGGAT | -0.22 kcal/mol |
| TTGGACACGTGGCTCG | 0.03 kcal/mol |
| TTCTGCACGTGTAAGT | 0.09 kcal/mol |
| TTGTACACGTGGAAAT | 0.22 kcal/mol |
| TTCCGCACGTGTTGTG | -0.08 kcal/mol |
| GGCGGCACGTGCAGGT | -0.08 kcal/mol |
| ATTGACACGTGGGTTA | -0.09 kcal/mol |
| AGTTCCACGTGTGATG | 0.1 kcal/mol |
| TTGGCCACGTGGATGG | 0 kcal/mol |
| GAATGCACGTGGAGGC | 0.08 kcal/mol |
| TTGTGCACGTGTTCTT | -0.1 kcal/mol |
| TAAAGCACGTGAGGCG | 0.21 kcal/mol |
| CATGCCACGTGGGGTA | -0.19 kcal/mol |
| GTGGGCACGTGTAGAC | 0.05 kcal/mol |
| TTGGGCACGTGCTCGT | -0.18 kcal/mol |
| TCGTTCACGTGGTATA | 0.08 kcal/mol |
| AGAGCCACGTGGGCGT | -0.19 kcal/mol |
| GGGATCACGTGAGTAT | 0.26 kcal/mol |
| AAGGTCACGTGGCGGA | 0.05 kcal/mol |
| TGTGACACGTGTTAGA | 0.04 kcal/mol |

| Sequence | relative binding free energy |
| --- | --- |
| ATAGGCACGTGTTGTG | -0.22 kcal/mol |
| TGCGTCACGTGGACGT | 0.03 kcal/mol |
| ATCAGCACGTGGGTTT | -0.25 kcal/mol |
| GTGACCACGTGTTTGG | 0.06 kcal/mol |
| AATGGCACGTGTGGGA | -0.11 kcal/mol |
| TAACTCACGTGGGGTT | -0.06 kcal/mol |
| AAGGTCACGTGGTGCG | 0.08 kcal/mol |
| ATCGGCACGTGGATTG | -0.06 kcal/mol |
| TGAGTCACGTGTTTAG | 0.16 kcal/mol |
| GGGGTCACGTGGTTTA | 0.22 kcal/mol |
| TGTAGCACGTGAGTTG | 0.13 kcal/mol |
| GGGTTCACGTGGGATA | 0.32 kcal/mol |
| CTGGGCACGTGAGGTC | 0.1 kcal/mol |
| CAGAGCACGTGGAGGG | -0.21 kcal/mol |
| ATTGGCACGTGGCGGG | -0.2 kcal/mol |
| ATTAGCACGTGAGAGT | 0.21 kcal/mol |
| TCTTACACGTGTATGT | 0.14 kcal/mol |
| AGATGCACGTGAGGTA | 0.11 kcal/mol |
| CGTATCACGTGTGCGT | 0.15 kcal/mol |
| GCGCACACGTGTGGGG | 0.24 kcal/mol |
| GGGGGCACGTGCGACG | -0.2 kcal/mol |
| GGCATCACGTGGCGGA | 0.18 kcal/mol |
| TATATCACGTGGAATG | 0.18 kcal/mol |

| Sequence | relative binding free energy |
| --- | --- |
| AGTGGCACGTGGACCG | -0.05 kcal/mol |
| CTATACACGTGTGAGG | 0.11 kcal/mol |
| TCGTTCACGTGTGATG | 0.38 kcal/mol |
| TATACCACGTGTGGTT | -0.12 kcal/mol |
| ATTGGCACGTGATTGC | 0 kcal/mol |
| GCAGTCACGTGTTGAG | 0.28 kcal/mol |
| CGGGTCACGTGTTGGC | 0.18 kcal/mol |
| TGATTCACGTGTCGGT | 0.25 kcal/mol |
| TCGGACACGTGTTGGA | 0.1 kcal/mol |
| TGGCGCACGTGCAGAG | -0.09 kcal/mol |
| TAATACACGTGTTGCG | 0.05 kcal/mol |
| TTTGTCACGTGTCGTG | 0.07 kcal/mol |
| ATTTTCACGTGTACGG | 0.26 kcal/mol |
| TGTCCCACGTGGAGGG | -0.04 kcal/mol |
| TAGCTCACGTGTTGGA | 0.2 kcal/mol |
| GCGATCACGTGTAGTG | 0.24 kcal/mol |
| CGGGTCACGTGGGACT | -0.03 kcal/mol |
| AAGCGCACGTGGTTTG | -0.12 kcal/mol |
| TCGTTCACGTGATTGA | 0.31 kcal/mol |
| TATGGCACGTGCGCTT | -0.09 kcal/mol |
| TGGATCACGTGGGTTT | 0.08 kcal/mol |
| ATCTGCACGTGGGTCT | -0.16 kcal/mol |
| TGATGCACGTGGGTCA | -0.34 kcal/mol |
